From US4772586A, “Novel derivatives of arginine vasopressin antagonists” (Medical College of Ohio, priority 1986, dated 1988)
Not every detail of the peptide structures is certain; ends, links or a residue may be inferred. *1 amine or outer side, *2 acyl side, *3 side chain or, on linkers, in order; H or OH if unused. Where a SMILES comes first, the peptide text is derived from it. Bridges are numbered along the chain shown (N, C = ends). [ ]: non-standard residue; d: D form. Ethylenediamine = C(CN[*:2])N[*:1]; X1 = O=C(CC1(S[*:2])CCCCC1)[*:1]

Columns and labels:
[1] = system: antidiuretic response to arginine vasopressin; experiment: Antagonism of the antidiuretic response to arginine vasopressin (Anti-ADH); assay type: in vivo, rats; settings: for Anti-ADH Potency ED: evaluated as in Example 8; for Anti-ADH ED: Table 1, effective dose reducing response to 2x units of agonist injected 20 min after antagonist to response with 1x units
Method: Activity as antidiuretic agonists was determined by intravenous injection of the compounds being evaluated in ethanol-anesthesized water-loaded rats in accordance with Sawyer, Endocrinology, vol. 63 (1958) at 694. Antagonism of the antidiuretic response to subsequent injections of arginine vasopressin was tested by the method of Sawyer et al., Science, vol. 212 (1981) at 49.
(§1) Antagonistic potencies were determined and expressed as "effective doses" and pA2 values. The "effective dose" is defined as the dose (in nanomoles per kilogram) that reduces the response seen from 2x units of agonist injected 20 min after the dose of antagonist to the response with 1x units of agonist. Estimated in vivo "pA2 " values represent the negative logarithms of the effective doses, divided by the estimated volume of distribution (67 ml/kg).

[2] = system: vasopressor response to arginine vasopressin; experiment: Antagonism to the vasopressor response (Anti-VP); assay type: in vivo; settings: for Anti-VP Potency ED: evaluated as in Example 8; for ED ratio: anti-VP ED relative to anti-ADH ED; for Anti-VP ED: Table 1, effective dose
Method: Antagonism to the vasopressor response was estimated in accordance with Dyckes et al., J. Med. Chem., vol. 17 (1974) at 969. The values are expressed as pA2 values, defined as in Schild et al., Br. J. Pharmacol., vol. 2 (1947) at 189.
as §1

Row | Compound | Anti-ADH Potency ED ([1]; Table 4, ^+ = mixed) | Anti-VP Potency ED ([2]; Table 4) [nanomoles per kilogram] | Anti-ADH Potency ED ([1]; Table 2) [nanomoles per kilogram] | ED ratio ([2]; Table 2) | Anti-VP Potency ED ([2]; Table 2) [nanomoles per kilogram] | Anti-ADH ED [1] [nmol/kg] | Anti-VP ED [2] [nmol/kg]
1 | COc1ccc(C[C@@H]2NC(=O)CC3(CCCCC3)SSC[C@@H](C(=O)N3CCC[C@H]3C(=O)N[C@@H](CCCNC(=N)N)C(=O)NCCN)NC(=O)[C@H](CC(N)=O)NC(=O)[C@H](CCC(N)=O)NC(=O)[C@H](Cc3ccccc3)NC2=O)cc1 [[1(beta-mercapto-beta,beta-cyclopentamethylenepropionic acid), 2-(O-methyl)tyrosine, 8-arginine-N-(beta-amino)ethylamide, 9-desglycinamide] vasopressin] (Y(Me)FQNCPR-Ethylenediamine; linker N-5 via X1) | ~ 3.3 nanomoles per kilogram | 0.12 ± 0.02 | – | – | – | – | –
2 | CC[C@H](C)[C@@H]1NC(=O)[C@H](Cc2ccccc2)NC(=O)[C@@H](Cc2ccccc2)NC(=O)CC2(CCCCC2)SSC[C@@H](C(=O)N2CCC[C@H]2C(=O)N[C@@H](CCCNC(=N)N)C(=O)N[C@H](C)C(N)=O)NC(=O)[C@H](CC(N)=O)NC1=O [D-Ala(NH2), [1-(beta-mercapto-beta,beta-cyclopentamethylenepropionic acid), 2-D-phenylalanine, 4-isoleucine, 9-D-alaninamide]-arginine vasopressin] ([dF]FINCPR[dA]-NH2; linker N-5 via X1) | – | – | 2.9 ± 0.4 | 0.66 | 1.9 ± 0.2 | – | –
3 | CC[C@H](C)[C@@H]1NC(=O)[C@H](Cc2ccccc2)NC(=O)[C@@H](Cc2ccccc2)NC(=O)CC2(CCCCC2)SSC[C@@H](C(=O)N2CCC[C@H]2C(=O)N[C@@H](CCCNC(=N)N)C(N)=O)NC(=O)[C@H](CC(N)=O)NC1=O [desGly^9 d(CH2)5 [D-Phe^2,Ile^ 4]AVP, [1-(beta-mercapto-beta,beta-cyclopentamethylenepropionic acid), 2-D-phenylalanine, 4-isoleucine, 9-desglycine]-arginine vasopressin] ([dF]FINCPR-NH2; linker N-5 via X1) | – | – | – | – | – | 0.66 ± 0.17 | 1.0 ± 0.1
4 | CCOc1ccc(C[C@H]2NC(=O)CC3(CCCCC3)SSC[C@@H](C(=O)N3CCC[C@H]3C(=O)N[C@@H](CCCNC(=N)N)C(=O)NCC(=O)NC)NC(=O)[C@H](CC(N)=O)NC(=O)[C@H](C(C)C)NC(=O)[C@H](Cc3ccccc3)NC2=O)cc1 [[1-(beta-mercapto-beta,beta-cyclopentamethylenepropionic acid), 2-D-(O-ethyl)tyrosine, 4-valine, 9-glycine-N-methylamide]-arginine vasopressin] ([dY](Et)FVNCPRG-NHMe; linker N-5 via X1) | 2.0 ± 0.3 nanomoles per kilogram | 1.3 ± 0.1 | – | – | – | – | –
5 | CC[C@H](C)[C@@H]1NC(=O)[C@H](Cc2ccccc2)NC(=O)[C@@H](Cc2ccccc2)NC(=O)CC2(CCCCC2)SSC[C@@H](C(=O)N2CCC[C@H]2C(=O)N[C@@H](CCCNC(=N)N)C(=O)O)NC(=O)[C@H](CC(N)=O)NC1=O [[1-(beta-mercapto-beta,beta-cyclopentamethylenepropionic acid), 2-D-phenylalanine, 4-isoleucine, 9-desglycinamide]-arginine vasopressin] ([dF]FINCPR-OH; linker N-5 via X1) | 0.66 ± 0.17 nanomoles per kilogram | 1.0 ± 0.1 | – | – | – | 4.6 ± 1.2 | 14 ± 2
6 | CC[C@H](C)[C@@H]1NC(=O)[C@H](Cc2ccccc2)NC(=O)[C@@H](Cc2ccccc2)NC(=O)CC2(CCCCC2)SSC[C@@H](C(=O)N2CCC[C@H]2C(=O)N[C@@H](CCCNC(=N)N)C(=O)N[C@@H](CCCNC(=N)N)C(N)=O)NC(=O)[C@H](CC(N)=O)NC1=O [Arg(NH2), [1-(beta-mercapto-beta,beta-cyclopentamethylenepropionic acid), 2-D-phenylalanine, 4-isoleucine, 9-argininamide]-arginine vasopressin] ([dF]FINCPRR-NH2; linker N-5 via X1) | – | – | 0.67 ± 0.15 | 0.82 | 0.55 ± 0.09 | – | –
7 | CCOc1ccc(C[C@@H]2NC(=O)CC3(CCCCC3)SSC[C@@H](C(=O)N3CCC[C@H]3C(=O)N[C@@H](CCCNC(=N)N)C(N)=O)NC(=O)[C@H](CC(N)=O)NC(=O)[C@H](C(C)C)NC(=O)[C@H](Cc3ccccc3)NC2=O)cc1 [desGly^9 d(CH2)5 [Tyr(Et)^2]VAVP, [1-(beta-mercapto-beta,beta-cyclopentamethylenepropionic acid), 2-(O-ethyl)tyrosine, 4-valine, 9-desglycine]-arginine vasopressin] (Y(Et)FVNCPR-NH2; linker N-5 via X1) | – | – | – | – | – | 1.0 ± 0.2 | 0.45 ± 0.02
8 | CCOc1ccc(C[C@H]2NC(=O)CC3(CCCCC3)SSC[C@@H](C(=O)N3CCC[C@H]3C(=O)N[C@@H](CCCNC(=N)N)C(=O)NCCN)NC(=O)[C@H](CC(N)=O)NC(=O)[C@H]([C@@H](C)CC)NC(=O)[C@H](Cc3ccccc3)NC2=O)cc1 [[1-(beta-mercapto-beta,beta-cyclopentamethylenepropionic acid), 2-D-(O-ethyl)tyrosine, 4-isoleucine, 8-arginine-N-(beta-amino)ethylamide, 9-desglycinamide] vasopressin] ([dY](Et)FINCPR-Ethylenediamine; linker N-5 via X1) | 0.77 ± 0.22 nanomoles per kilogram | 0.32 ± 0.04 | – | – | – | – | –
9 | CC[C@H](C)[C@@H]1NC(=O)[C@H](Cc2ccccc2)NC(=O)[C@@H](Cc2ccccc2)NC(=O)CC2(CCCCC2)SSC[C@@H](C(=O)N2CCC[C@H]2C(=O)N[C@@H](CCCNC(=N)N)C(=O)N[C@@H](C)C(N)=O)NC(=O)[C@H](CC(N)=O)NC1=O [Ala(NH2), [1-(beta-mercapto-beta,beta-cyclopentamethylenepropionic acid), 2-D-phenylalanine, 4-isoleucine, 9-alaninamide]-arginine vasopressin] ([dF]FINCPRA-NH2; linker N-5 via X1) | – | – | 0.31 ± 0.07 | 4.8 | 1.5 ± 0.1 | – | –
10 | CC[C@H](C)[C@@H]1NC(=O)[C@H](Cc2ccccc2)NC(=O)[C@@H](Cc2ccccc2)NC(=O)CC2(CCCCC2)SSC[C@@H](C(=O)N2CCC[C@H]2C(=O)N[C@@H](CCCNC(=N)N)C(=O)N[C@@H](CO)C(N)=O)NC(=O)[C@H](CC(N)=O)NC1=O [Ser(NH2), [1-(beta-mercapto-beta,beta-cyclopentamethylenepropionic acid), 2-D-phenylalanine, 4-isoleucine, 9-serinamide]-arginine vasopressin] ([dF]FINCPRS-NH2; linker N-5 via X1) | – | – | 0.55 ± 0.09 | 1.0 | 0.54 ± 0.09 | – | –
